Experimental data from PMC12820563, “FoxP3 forms a head-to-head dimer in vivo and stabilizes its multimerization on adjacent microsatellites”.
The other results are listed elsewhere or left out.

target: T1, MBP-FoxP1dN (Mus musculus, UniProt P58462 326-579); assay: PD-seq (MBP pull-down with sequencing); 20 mM Tris-HCl pH 7.5, 100 mM NaCl, 1.5 mM MgCl2, 0.4 uM protein, 0.1 uM dsDNA library, 30 min, room temperature, amylose pull-down; high values mean tight binding; details: protein: recombinant; tags: His6-MBP; chain copies: 2; dsDNA, one strand shown
T1 sequence: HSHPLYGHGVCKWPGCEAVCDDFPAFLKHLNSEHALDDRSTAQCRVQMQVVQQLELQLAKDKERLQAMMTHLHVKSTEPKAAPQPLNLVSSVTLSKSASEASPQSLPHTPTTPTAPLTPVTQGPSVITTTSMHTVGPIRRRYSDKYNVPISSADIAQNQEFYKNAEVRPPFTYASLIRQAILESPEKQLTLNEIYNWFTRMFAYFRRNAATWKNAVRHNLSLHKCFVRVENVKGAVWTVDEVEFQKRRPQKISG
How it was run: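 In Tris pH 7.5 buffer with NaCl and MgCl2, 0.4 µM His6-MBP-tagged mouse FoxP3 or FoxP1 fragment lacking the N-terminus, from E. coli, met 0.1 µM Klenow-filled double-stranded degenerate DNA library for 30 min at room temperature. Three washes on amylose resin followed capture of the complexes, then proteinase K release of DNA, PCR barcoding and Illumina sequencing. Binding is taken as pooled-replicate reads-per-million enrichment of pull-down relative to input.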

| Sequence | binding signal |
| --- | --- |
| GATGATTGTTCTCCCAGCTGATGAATTTGAAGTTTCGAGTAAACAAATTTTCCTAATCTTTCTGTTCAAGCGCCATCTAC | 0.792 RPM ratio (pull-down/input) |
| GATGATTGTTCTCCCAGCTGATGAATTCCAGGCTTCGAGTAAACAAATTTTCCTAATCTTTCTGTTCAAGCGCCATCTAC | 0.758 RPM ratio (pull-down/input) |
| GATGATTGTTCTCCCAGCTGATGAATTCAAAGCTTCGAGTAAACAAATTTTCCTAATCTTTCTGTTCAAGCGCCATCTAC | 0.827 RPM ratio (pull-down/input) |
| GATGATTGTTCTCCCAGCTGATGAATTTCGACCCTCGAGTAAACAAATTTTCCTAATCTTTCTGTTCAAGCGCCATCTAC | 0.754 RPM ratio (pull-down/input) |
| GATGATTGTTCTCCCAGCTGATGAATTCTGACGTTCGAGTAAACAAATTTTCCTAATCTTTCTGTTCAAGCGCCATCTAC | 0.859 RPM ratio (pull-down/input) |
| GATGATTGTTCTCCCAGCTGATGAATTAAGCCGCTCGAGTAAACAAATTTTCCTAATCTTTCTGTTCAAGCGCCATCTAC | 0.865 RPM ratio (pull-down/input) |
| GATGATTGTTCTCCCAGCTGATGAATTAGGTGATTCGAGTAAACAAATTTTCCTAATCTTTCTGTTCAAGCGCCATCTAC | 1.06 RPM ratio (pull-down/input) |
| GATGATTGTTCTCCCAGCTGATGAATTACTAGCGTCGAGTAAACAAATTTTCCTAATCTTTCTGTTCAAGCGCCATCTAC | 0.999 RPM ratio (pull-down/input) |
| GATGATTGTTCTCCCAGCTGATGAATTTCACCTTTCGAGTAAACAAATTTTCCTAATCTTTCTGTTCAAGCGCCATCTAC | 0.845 RPM ratio (pull-down/input) |
| GATGATTGTTCTCCCAGCTGATGAATTCAGCAATTCGAGTAAACAAATTTTCCTAATCTTTCTGTTCAAGCGCCATCTAC | 1.02 RPM ratio (pull-down/input) |
| GATGATTGTTCTCCCAGCTGATGAATTCGCGTCTTCGAGTAAACAAATTTTCCTAATCTTTCTGTTCAAGCGCCATCTAC | 0.909 RPM ratio (pull-down/input) |
| GATGATTGTTCTCCCAGCTGATGAATTGGTGGTTTCGAGTAAACAAATTTTCCTAATCTTTCTGTTCAAGCGCCATCTAC | 0.966 RPM ratio (pull-down/input) |
| GATGATTGTTCTCCCAGCTGATGAATTTGCGGCATCGAGTAAACAAATTTTCCTAATCTTTCTGTTCAAGCGCCATCTAC | 1.02 RPM ratio (pull-down/input) |
| GATGATTGTTCTCCCAGCTGATGAATTGGGAGTTTCGAGTAAACAAATTTTCCTAATCTTTCTGTTCAAGCGCCATCTAC | 0.853 RPM ratio (pull-down/input) |
| GATGATTGTTCTCCCAGCTGATGAATTCTGCGCATCGAGTAAACAAATTTTCCTAATCTTTCTGTTCAAGCGCCATCTAC | 1.12 RPM ratio (pull-down/input) |
| GATGATTGTTCTCCCAGCTGATGAATTGCTCAGTTCGAGTAAACAAATTTTCCTAATCTTTCTGTTCAAGCGCCATCTAC | 0.973 RPM ratio (pull-down/input) |
| GATGATTGTTCTCCCAGCTGATGAATTATACAGTTCGAGTAAACAAATTTTCCTAATCTTTCTGTTCAAGCGCCATCTAC | 1.18 RPM ratio (pull-down/input) |
| GATGATTGTTCTCCCAGCTGATGAATTAACTTCTTCGAGTAAACAAATTTTCCTAATCTTTCTGTTCAAGCGCCATCTAC | 0.832 RPM ratio (pull-down/input) |
| GATGATTGTTCTCCCAGCTGATGAATTCGCATACTCGAGTAAACAAATTTTCCTAATCTTTCTGTTCAAGCGCCATCTAC | 0.969 RPM ratio (pull-down/input) |
| GATGATTGTTCTCCCAGCTGATGAATTTATCTGGTCGAGTAAACAAATTTTCCTAATCTTTCTGTTCAAGCGCCATCTAC | 0.931 RPM ratio (pull-down/input) |
| GATGATTGTTCTCCCAGCTGATGAATTCGCGGTATCGAGTAAACAAATTTTCCTAATCTTTCTGTTCAAGCGCCATCTAC | 0.932 RPM ratio (pull-down/input) |

| Sequence | binding signal |
| --- | --- |
| GATGATTGTTCTCCCAGCTGATGAATTTACCTATTCGAGTAAACAAATTTTCCTAATCTTTCTGTTCAAGCGCCATCTAC | 1.33 RPM ratio (pull-down/input) |
| GATGATTGTTCTCCCAGCTGATGAATTCAGAGTTTCGAGTAAACAAATTTTCCTAATCTTTCTGTTCAAGCGCCATCTAC | 0.913 RPM ratio (pull-down/input) |
| GATGATTGTTCTCCCAGCTGATGAATTCCAGCCTTCGAGTAAACAAATTTTCCTAATCTTTCTGTTCAAGCGCCATCTAC | 0.842 RPM ratio (pull-down/input) |
| GATGATTGTTCTCCCAGCTGATGAATTCTACCCCTCGAGTAAACAAATTTTCCTAATCTTTCTGTTCAAGCGCCATCTAC | 0.797 RPM ratio (pull-down/input) |
| GATGATTGTTCTCCCAGCTGATGAATTAGAAGCTTCGAGTAAACAAATTTTCCTAATCTTTCTGTTCAAGCGCCATCTAC | 0.996 RPM ratio (pull-down/input) |
| GATGATTGTTCTCCCAGCTGATGAATTCGCAGTGTCGAGTAAACAAATTTTCCTAATCTTTCTGTTCAAGCGCCATCTAC | 0.866 RPM ratio (pull-down/input) |
| GATGATTGTTCTCCCAGCTGATGAATTCAAAATCTCGAGTAAACAAATTTTCCTAATCTTTCTGTTCAAGCGCCATCTAC | 0.867 RPM ratio (pull-down/input) |
| GATGATTGTTCTCCCAGCTGATGAATTATAGGGTTCGAGTAAACAAATTTTCCTAATCTTTCTGTTCAAGCGCCATCTAC | 0.946 RPM ratio (pull-down/input) |
| GATGATTGTTCTCCCAGCTGATGAATTTTCGCCCTCGAGTAAACAAATTTTCCTAATCTTTCTGTTCAAGCGCCATCTAC | 0.825 RPM ratio (pull-down/input) |
| GATGATTGTTCTCCCAGCTGATGAATTTCGAAGGTCGAGTAAACAAATTTTCCTAATCTTTCTGTTCAAGCGCCATCTAC | 0.722 RPM ratio (pull-down/input) |
| GATGATTGTTCTCCCAGCTGATGAATTCTTCGAGTCGAGTAAACAAATTTTCCTAATCTTTCTGTTCAAGCGCCATCTAC | 0.849 RPM ratio (pull-down/input) |
| GATGATTGTTCTCCCAGCTGATGAATTCGCCTATTCGAGTAAACAAATTTTCCTAATCTTTCTGTTCAAGCGCCATCTAC | 0.908 RPM ratio (pull-down/input) |
| GATGATTGTTCTCCCAGCTGATGAATTTCAAATTTCGAGTAAACAAATTTTCCTAATCTTTCTGTTCAAGCGCCATCTAC | 0.846 RPM ratio (pull-down/input) |
| GATGATTGTTCTCCCAGCTGATGAATTATCTTGTTCGAGTAAACAAATTTTCCTAATCTTTCTGTTCAAGCGCCATCTAC | 1.02 RPM ratio (pull-down/input) |
| GATGATTGTTCTCCCAGCTGATGAATTCCCATTTTCGAGTAAACAAATTTTCCTAATCTTTCTGTTCAAGCGCCATCTAC | 0.961 RPM ratio (pull-down/input) |
| GATGATTGTTCTCCCAGCTGATGAATTTTCGTATTCGAGTAAACAAATTTTCCTAATCTTTCTGTTCAAGCGCCATCTAC | 1.05 RPM ratio (pull-down/input) |
| GATGATTGTTCTCCCAGCTGATGAATTCCCTTACTCGAGTAAACAAATTTTCCTAATCTTTCTGTTCAAGCGCCATCTAC | 0.802 RPM ratio (pull-down/input) |
| GATGATTGTTCTCCCAGCTGATGAATTACATTAATCGAGTAAACAAATTTTCCTAATCTTTCTGTTCAAGCGCCATCTAC | 1.37 RPM ratio (pull-down/input) |
| GATGATTGTTCTCCCAGCTGATGAATTCTCCTAATCGAGTAAACAAATTTTCCTAATCTTTCTGTTCAAGCGCCATCTAC | 0.872 RPM ratio (pull-down/input) |
| GATGATTGTTCTCCCAGCTGATGAATTTACCTCTTCGAGTAAACAAATTTTCCTAATCTTTCTGTTCAAGCGCCATCTAC | 1.21 RPM ratio (pull-down/input) |
| GATGATTGTTCTCCCAGCTGATGAATTCTACGCCTCGAGTAAACAAATTTTCCTAATCTTTCTGTTCAAGCGCCATCTAC | 0.851 RPM ratio (pull-down/input) |

| Sequence | binding signal |
| --- | --- |
| GATGATTGTTCTCCCAGCTGATGAATTTGAGGGATCGAGTAAACAAATTTTCCTAATCTTTCTGTTCAAGCGCCATCTAC | 0.822 RPM ratio (pull-down/input) |
| GATGATTGTTCTCCCAGCTGATGAATTCGTCTTCTCGAGTAAACAAATTTTCCTAATCTTTCTGTTCAAGCGCCATCTAC | 0.86 RPM ratio (pull-down/input) |
| GATGATTGTTCTCCCAGCTGATGAATTAACAGAATCGAGTAAACAAATTTTCCTAATCTTTCTGTTCAAGCGCCATCTAC | 1.16 RPM ratio (pull-down/input) |
| GATGATTGTTCTCCCAGCTGATGAATTATTAGAATCGAGTAAACAAATTTTCCTAATCTTTCTGTTCAAGCGCCATCTAC | 1.2 RPM ratio (pull-down/input) |
| GATGATTGTTCTCCCAGCTGATGAATTAGTGGCATCGAGTAAACAAATTTTCCTAATCTTTCTGTTCAAGCGCCATCTAC | 1.23 RPM ratio (pull-down/input) |
| GATGATTGTTCTCCCAGCTGATGAATTCACCCGTTCGAGTAAACAAATTTTCCTAATCTTTCTGTTCAAGCGCCATCTAC | 0.895 RPM ratio (pull-down/input) |
| GATGATTGTTCTCCCAGCTGATGAATTTTTTGCCTCGAGTAAACAAATTTTCCTAATCTTTCTGTTCAAGCGCCATCTAC | 0.956 RPM ratio (pull-down/input) |
| GATGATTGTTCTCCCAGCTGATGAATTTCCTACATCGAGTAAACAAATTTTCCTAATCTTTCTGTTCAAGCGCCATCTAC | 0.934 RPM ratio (pull-down/input) |
| GATGATTGTTCTCCCAGCTGATGAATTCTCCTGGTCGAGTAAACAAATTTTCCTAATCTTTCTGTTCAAGCGCCATCTAC | 0.758 RPM ratio (pull-down/input) |
| GATGATTGTTCTCCCAGCTGATGAATTGCACGCGTCGAGTAAACAAATTTTCCTAATCTTTCTGTTCAAGCGCCATCTAC | 1.17 RPM ratio (pull-down/input) |
| GATGATTGTTCTCCCAGCTGATGAATTTCATCTATCGAGTAAACAAATTTTCCTAATCTTTCTGTTCAAGCGCCATCTAC | 0.877 RPM ratio (pull-down/input) |
| GATGATTGTTCTCCCAGCTGATGAATTTACACAGTCGAGTAAACAAATTTTCCTAATCTTTCTGTTCAAGCGCCATCTAC | 1.34 RPM ratio (pull-down/input) |
| GATGATTGTTCTCCCAGCTGATGAATTTAGGTGTTCGAGTAAACAAATTTTCCTAATCTTTCTGTTCAAGCGCCATCTAC | 1.02 RPM ratio (pull-down/input) |
| GATGATTGTTCTCCCAGCTGATGAATTGCTCTATTCGAGTAAACAAATTTTCCTAATCTTTCTGTTCAAGCGCCATCTAC | 1.07 RPM ratio (pull-down/input) |
| GATGATTGTTCTCCCAGCTGATGAATTCCAAGAGTCGAGTAAACAAATTTTCCTAATCTTTCTGTTCAAGCGCCATCTAC | 0.727 RPM ratio (pull-down/input) |
| GATGATTGTTCTCCCAGCTGATGAATTCTCCACATCGAGTAAACAAATTTTCCTAATCTTTCTGTTCAAGCGCCATCTAC | 0.931 RPM ratio (pull-down/input) |
| GATGATTGTTCTCCCAGCTGATGAATTTGTAGGCTCGAGTAAACAAATTTTCCTAATCTTTCTGTTCAAGCGCCATCTAC | 0.934 RPM ratio (pull-down/input) |
| GATGATTGTTCTCCCAGCTGATGAATTTAGGGGCTCGAGTAAACAAATTTTCCTAATCTTTCTGTTCAAGCGCCATCTAC | 0.857 RPM ratio (pull-down/input) |
| GATGATTGTTCTCCCAGCTGATGAATTGGCAGCTTCGAGTAAACAAATTTTCCTAATCTTTCTGTTCAAGCGCCATCTAC | 0.8 RPM ratio (pull-down/input) |
| GATGATTGTTCTCCCAGCTGATGAATTCTTGAGCTCGAGTAAACAAATTTTCCTAATCTTTCTGTTCAAGCGCCATCTAC | 0.777 RPM ratio (pull-down/input) |
| GATGATTGTTCTCCCAGCTGATGAATTACCCCGGTCGAGTAAACAAATTTTCCTAATCTTTCTGTTCAAGCGCCATCTAC | 0.873 RPM ratio (pull-down/input) |
